Measured values published in paper PMC4336329 (PLoS ONE, 2015).
About 14,000 (4.5%) of roughly 310,000 compounds showed an effect of 50% or more. Effects have a minus sign here. Some of the results follow.
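Further: peak tail current of the secondary pulse compared with the same well before compound.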

What follows are compounds tested against human ether-à-go-go-related gene (hERG) potassium channel (human, UniProt Q12809) (assay: primary screen, population patch clamp on CHO cells stably expressing hERG).
human ether-à-go-go-related gene (hERG) potassium channel, sequence (Q12809 whole entry, looked up): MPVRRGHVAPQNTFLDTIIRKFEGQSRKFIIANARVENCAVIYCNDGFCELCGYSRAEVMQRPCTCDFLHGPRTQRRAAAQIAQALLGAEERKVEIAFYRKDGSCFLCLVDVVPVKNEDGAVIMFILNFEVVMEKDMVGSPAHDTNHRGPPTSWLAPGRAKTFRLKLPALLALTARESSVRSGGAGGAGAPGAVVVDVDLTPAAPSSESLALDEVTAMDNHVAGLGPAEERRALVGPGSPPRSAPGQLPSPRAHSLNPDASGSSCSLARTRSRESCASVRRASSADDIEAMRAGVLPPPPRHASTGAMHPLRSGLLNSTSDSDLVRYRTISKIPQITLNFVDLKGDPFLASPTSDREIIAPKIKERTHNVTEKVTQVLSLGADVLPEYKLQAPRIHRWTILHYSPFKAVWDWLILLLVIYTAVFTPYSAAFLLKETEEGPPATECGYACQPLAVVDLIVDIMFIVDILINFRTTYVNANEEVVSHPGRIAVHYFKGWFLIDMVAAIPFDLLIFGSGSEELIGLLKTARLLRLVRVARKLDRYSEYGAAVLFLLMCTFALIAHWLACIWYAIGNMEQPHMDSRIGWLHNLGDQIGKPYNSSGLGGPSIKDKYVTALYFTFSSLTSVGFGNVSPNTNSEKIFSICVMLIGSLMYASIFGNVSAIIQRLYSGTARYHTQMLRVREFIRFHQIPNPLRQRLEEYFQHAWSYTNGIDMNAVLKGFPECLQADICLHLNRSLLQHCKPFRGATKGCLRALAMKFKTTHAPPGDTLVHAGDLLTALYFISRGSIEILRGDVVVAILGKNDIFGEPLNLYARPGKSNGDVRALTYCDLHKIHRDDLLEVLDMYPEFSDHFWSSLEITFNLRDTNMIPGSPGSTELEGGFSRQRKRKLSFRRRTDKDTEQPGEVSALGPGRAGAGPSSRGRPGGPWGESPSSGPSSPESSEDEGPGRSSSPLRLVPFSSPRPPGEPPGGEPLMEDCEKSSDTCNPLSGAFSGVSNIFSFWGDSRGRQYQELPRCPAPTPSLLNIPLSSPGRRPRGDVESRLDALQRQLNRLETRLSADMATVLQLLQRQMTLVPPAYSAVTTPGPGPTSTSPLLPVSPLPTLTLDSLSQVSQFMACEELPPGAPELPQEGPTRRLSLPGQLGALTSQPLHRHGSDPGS
COc1ccc(/C=N/n2c(C)nc3ccccc3c2=O)cc1 was tested, and the “hERG current change (%, negative = inhibition) at 10uM” value was 10.1%.
For O=C(Nc1cccc(S(=O)(=O)NC2=NCCC2)c1)C1CC(=O)N(c2ccc3c(c2)OCCO3)C1 (stereo not shown), the “hERG current change (%, negative = inhibition) at 10uM” value was 23.2%.
For COc1cccc(-c2noc(-c3ccoc3C)n2)c1, the “hERG current change (%, negative = inhibition) at 10uM” value was 35.8%.
O=C(Nc1nc(-c2ccccc2)c(C(=O)c2ccccc2)s1)c1ccc(S(=O)(=O)N2CCCCC2)cc1 was tested, and the “hERG current change (%, negative = inhibition) at 10uM” value was 1.3%.
COc1ccc(C2=NOC(Cn3nc(C(=O)NCc4ccc(OC(F)(F)F)cc4)cc3-c3ccccc3)C2)cc1 (stereo not shown) was tested, and the “hERG current change (%, negative = inhibition) at 10uM” value was -3.95%.
With O=C(CCNS(=O)(=O)c1cccs1)NCc1ccco1 the “hERG current change (%, negative = inhibition) at 10uM” value was 1.96%.
With NC(=O)c1cc([N+](=O)[O-])c(Cl)cc1NCc1ccncc1 the “hERG current change (%, negative = inhibition) at 10uM” value was -31.9%.
For CC(NCCC1(Cc2ccccc2Cl)CCOC(C)(C)C1)c1cccs1 (stereo not shown), the “hERG current change (%, negative = inhibition) at 10uM” value was -23.3%.
O=C(Nc1ccc(Cc2nc3ccccc3s2)cc1)c1ccncc1 was tested, and the “hERG current change (%, negative = inhibition) at 10uM” value was -25.1%.
CCNC(=O)Nc1cc(S(=O)(=O)Nc2ccc(OC)cc2)ccc1N1CCOCC1 was tested, and the “hERG current change (%, negative = inhibition) at 10uM” value was -9.8%.
In the case of CCn1c(SCC(=O)N/N=C/C(C)=C\c2ccco2)nnc1-c1ccccc1, the “hERG current change (%, negative = inhibition) at 10uM” value was -39%.
For CCC(C)NS(=O)(=O)c1ccc(NC(=O)c2c(-c3ccccc3)noc2C)cc1 (stereo not shown), the “hERG current change (%, negative = inhibition) at 10uM” value was 8.46%.
CCCn1nc(C(=O)Nc2cc(C(=O)OC)ccc2C)c2ccccc2c1=O was tested, and the “hERG current change (%, negative = inhibition) at 10uM” value was -4.93%.
With CCOc1ccc(-c2csc3ncn(-c4ccc(OC)cc4)c(=O)c23)cc1 the “hERG current change (%, negative = inhibition) at 10uM” value was 14.9%.
With O=[N+]([O-])c1ccc(/C=C/c2ccc3cccc([N+](=O)[O-])c3n2)cc1 the “hERG current change (%, negative = inhibition) at 10uM” value was 17.4%.
With CCN(CC)CCN(C(=O)c1ccc(S(=O)(=O)N(CC)c2ccccc2)cc1)c1nc2c(OC)ccc(OC)c2s1.Cl the “hERG current change (%, negative = inhibition) at 10uM” value was -27%.
With CCCc1cc(=O)oc2cc(OCC(=O)Nc3cc(C)on3)ccc12 the “hERG current change (%, negative = inhibition) at 10uM” value was 5.46%.
CCCCCCCCCCS(=O)(=O)N/N=C/c1ccc(O)cc1 was tested, and the “hERG current change (%, negative = inhibition) at 10uM” value was 21.2%.
CCc1c(C)nc2ncnn2c1N1CCC(C(=O)Nc2ccc(C)cc2)CC1 was tested, and the “hERG current change (%, negative = inhibition) at 10uM” value was -55.9%.
For CCc1c(C)c2ccc(O)c(CN(C)C)c2oc1=O, the “hERG current change (%, negative = inhibition) at 10uM” value was 5.38%.
With Cc1cc(=O)c2c(C)ccc(C)c2[nH]1 the “hERG current change (%, negative = inhibition) at 10uM” value was 17.1%.
For CN(Cc1ccccc1)c1nc2c(c(=O)[nH]c(=O)n2C)n1CCCSc1ncccn1, the “hERG current change (%, negative = inhibition) at 10uM” value was -25.8%.
In the case of CC(OC(=O)c1ccco1)C(=O)Nc1ccc(Cl)cn1 (stereo not shown), the “hERG current change (%, negative = inhibition) at 10uM” value was -11.9%.
CC(C)(Oc1ccc(Cl)cc1)C(=O)Nc1ncccn1 was tested, and the “hERG current change (%, negative = inhibition) at 10uM” value was -3%.
With Cc1n[nH]c(C)c1S(=O)(=O)N1CCCC(C(=O)Nc2nccs2)C1 (stereo not shown) the “hERG current change (%, negative = inhibition) at 10uM” value was -1.97%.
For CCOc1ccc(N(CC(=O)NC2CCCCC2)S(=O)(=O)c2ccc(C)cc2)cc1, the “hERG current change (%, negative = inhibition) at 10uM” value was 8.67%.
In the case of CC(C)C1N(S(=O)(=O)c2ccccc2)CCN1S(=O)(=O)c1ccccc1, the “hERG current change (%, negative = inhibition) at 10uM” value was -21.2%.
In the case of O=C(COC(=O)CSc1ccccc1)NNC(=O)c1ccc([N+](=O)[O-])cc1, the “hERG current change (%, negative = inhibition) at 10uM” value was 2.6%.
For O=C(NCCCN1CCOCC1)c1csc2c1CCCC2, the “hERG current change (%, negative = inhibition) at 10uM” value was -7.57%.
CCn1nc(C)c(CNC(=O)CCc2nnc(-c3ccc(C(C)=O)s3)o2)c1C was tested, and the “hERG current change (%, negative = inhibition) at 10uM” value was 1.46%.
In the case of O=C(NNC(=O)c1ccc(Cl)nc1)c1ccncc1, the “hERG current change (%, negative = inhibition) at 10uM” value was -5.05%.
With COc1ccc(Cl)cc1-c1nc(-c2ccncc2)no1 the “hERG current change (%, negative = inhibition) at 10uM” value was 14%.
In the case of COc1ccc(NC(=O)CCS(=O)(=O)c2ccc(Cl)cc2)cc1, the “hERG current change (%, negative = inhibition) at 10uM” value was 2.4%.
In the case of Cc1ccc(OCC(=O)Nc2cccc3c2CCCC3)cc1C, the “hERG current change (%, negative = inhibition) at 10uM” value was 2.96%.
With ClCCCc1cn(C[C@H]2CC[C@@H]([C@@H]3CC[C@H](Cn4cc(CCCCl)nn4)O3)O2)nn1 the “hERG current change (%, negative = inhibition) at 10uM” value was -33.6%.
In the case of CCOC(=O)c1cc(C(C)C)sc1NC(=O)COC(=O)CCS(=O)(=O)c1ccccc1, the “hERG current change (%, negative = inhibition) at 10uM” value was -0.5%.
CS(=O)(=O)N1CCN(c2ccccc2NC(=O)c2ccc(Cl)cc2)CC1 was tested, and the “hERG current change (%, negative = inhibition) at 10uM” value was -3.46%.
O=C(Cn1cnc2ccccc2c1=O)Nc1nnc(SCc2ccccc2)s1 was tested, and the “hERG current change (%, negative = inhibition) at 10uM” value was -1.67%.
With CC(=O)NC(c1ccccc1)c1cc(Cl)c2cccnc2c1O (stereo not shown) the “hERG current change (%, negative = inhibition) at 10uM” value was -1.29%.
In the case of N/C(=N\OC(=O)/C=C/c1ccccc1)c1ccccn1, the “hERG current change (%, negative = inhibition) at 10uM” value was -4%.
With Cc1ccc(N(C(=O)c2csnn2)C(C(=O)NC2CCCC2)c2ccncc2)c(C)c1 (stereo not shown) the “hERG current change (%, negative = inhibition) at 10uM” value was -9.5%.
For CCN(C)Cc1c(C(=O)N2CCc3ccccc3C2)nc2ccc(Cl)cn12, the “hERG current change (%, negative = inhibition) at 10uM” value was -31.1%.
With COc1ccccc1COCC(O)CN(Cc1ccco1)Cc1ccccc1O (stereo not shown) the “hERG current change (%, negative = inhibition) at 10uM” value was -27%.
